The values below come from PMC12040169 (PLOS Biology, 2025).

This is one part of the list.

The test deals with T1, C. trachomatis L2/434/Bu expressing GFP (CTL2-GFP).
T1 construct: L2/434/Bu GFP intracellular growth in HeLa cells
On the set-up: species or system HeLa; C. trachomatis total inclusion area by high-content imaging, normalised to DMSO. The settings on record: total inclusion area; 28.5 h, 10 µM; inhibitor. In a few lines: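 Imaging read-out: GFP inclusions and Hoechst nuclei captured by high-content imaging after fixation. Inclusion area/number = chlamydial growth; nuclei count = host cell viability. MIC calculated per earlier method.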
For the compound `CN1C2CCC1CC(OC(=O)c1cccnc1)C2` (stereo not drawn) [CBK026000], the “% of control remaining” value is reported as 79.2222. The figure for `O=C1CCCN1c1ccc(S(=O)(=O)NC2C3CCCCC32)cc1` (stereo not drawn) [CBK282842] is 82.0337; for `CC1=NC(O)(C(F)(F)F)C(c2ccccc2)S1` (stereo not drawn) [CBK009121] it is 34.1511. With `Clc1ccc(CSc2nccnc2N2CCCC2)cc1` [CBK107177] the figure was 56.3302.

Turning to `Cn1cc(-c2ccncc2)c(C2CCCCN2C(=O)c2ccccc2)n1` (stereo not drawn) [CBK283444], the “% of control remaining” value is 103.296. With `C/C(Cl)=C\CN1C(=O)C(=O)c2cc(C)ccc21` [CBK087601] the figure was 86.0469; with `COc1ccc(CC(=O)N2CCCc3c(cnn3C)C2)cc1F` [CBK285285], 90.5036; with `Cc1cc(-c2nnc(SCc3ccc(Cl)cc3)n2C)no1` [CBK067720], 91.6156. With `O=S(=O)(Nc1cc(F)cc(F)c1F)c1cc(OC2CCNCC2)c2occc2c1` [CBK082814C] the figure was 100.16.

On to `COc1ccccc1CN(C(=O)Nc1ccccc1Cl)C1CC1` [CBK298332], for which the “% of control remaining” value is on record as 96.1656. With `CCCCNC(=O)NS(N)(=O)=O` [CBK022990] the figure was 36.9682; with `c1ccc(CCNc2c3c(nc4ccccc24)CCC3)cc1` [CBK263693C], 85.052. The figure for `CCN1CCC(CC(=O)N2CCc3[nH]c4ccccc4c3C2)CC1` [CBK281846] is 125.988; for `COc1ccccc1N1CCN(c2c(C)c(C)nc3cc(-c4nccn4C)nn23)CC1` [CBK286182] it is 118.203.

Take `CCCSCC(=O)Nc1nn(C)c2cccc(N3CCOCC3)c12` [CBK307354]: the “% of control remaining” value came to 73.2979. `N#Cc1c(NC(=O)c2cc(S(=O)(=O)N3CCOCC3)cs2)sc2c1CCCC2` [CBK264532]: the “% of control remaining” value is on record as 129.506. The figure for `COc1ccc(Cl)cc1NC(=O)C1CC(=O)N=C(N2CCOCC2)N1` (stereo not drawn) [CBK268893] is 98.9917; for `COc1ncc(-c2nccnc2NCc2cccs2)c(OC)n1` [CBK037318] it is 106.036. On to `COc1ccc(C(=O)C2=C(O)C(=O)N(Cc3cccnc3)C2c2ccc(N(C)C)cc2)cc1` (stereo not drawn) [CBK264635], for which the “% of control remaining” value was 112.054. The figure for `COc1cc(/C=N\NC(=O)CN2CCN(C)CC2)cc2c1OCO2` [CBK261503] is 86.9372; for `CN(C)CCCN(Cc1ccco1)Cc1cccn1-c1ccccn1` [CBK283180] it is 80.4987. With `Cc1ccc(C)c(N2CCN(CCCNC(=S)Nc3ccc(Cl)cc3Cl)CC2)c1` [CBK267951] the figure was 69.6285; with `O=C(O)C1=CC(c2c[nH]nc2-c2ccc(F)cc2)n2ncnc2N1` (stereo not drawn) [CBK286906], 72.3547. With `CC(=O)N[C@@H](CC[S+](C)[O-])C(=O)N1CCC2(C/C=C/C[C@@H]3COCC[C@@H]3NC(=O)[C@@H](CC(C)C)NC2=O)CC1` (stereo partly drawn) [CBK292192] the figure was 87.6985; with `COC(=O)NC(=O)N1CCN(c2c(Cl)cncc2Cl)CC1` [CBK043398], 76.3245. In the case of `COc1cccc2sc(NC(=O)CCCN(C)C)nc12` [CBK149261], the “% of control remaining” value came to 74.9947. The figure for `Cc1ccc(Cc2cnc(NC(=O)N3CCC(O)C(F)(F)C3)s2)cc1C` (stereo not drawn) [CBK304120] is 46.3259; for `Cc1ccc(OCCO)cn1` [CBK001786] it is 100.448. The figure for `c1csc(CNc2nc3ccccc3n2CCN2CCOCC2)c1` [CBK262462] is 95.3527; for `Cc1ccc(S(=O)(=O)Nc2ccc(Nc3cc(-c4ccsc4)ncn3)cc2)cc1` [CBK037792] it is 73.5226.

With `Cc1cc(F)ccc1C(=O)NCC1CCN(c2cnn(C)c(=O)c2)C1` (stereo not drawn) [CBK307097], the “% of control remaining” value turned out to be 59.6855.

As for `c1coc(-c2nccnc2NCc2ccncc2)c1` [CBK038059], the “% of control remaining” value was 103.447. The figure for `O=C(O)c1ccccc1OCCCCOc1cccc2cccnc12` [CBK264136] is 105.282. With `C=CCOc1ccc(OCCN2CC(C)OC(C)C2)cc1` (stereo not drawn) [CBK269646C] the figure was 101.51; with `CC(C)NC(=O)NC[C@H]1C[C@@H]2CCN1C[C@@H]2c1cc(-c2ccc(F)cc2)nn1C` [CBK289111], 110.362.

As for `CC(=O)N[C@H](Cc1c[nH]c2ccccc12)C(=O)N1CCN(c2ccc(C)cc2)CC1` [CBK091333], the “% of control remaining” value was 88.6469. The figure for `CNC(=O)C1(Cc2ccc(-c3ccccc3)cc2)CCN(C(=O)Cc2ccccc2)CC1` [CBK285764] is 57.2184; for `CN(C(=O)Cn1cccn1)c1nc2c(s1)CC(c1ccccc1)CC2` (stereo not drawn) [CBK305173] it is 10.6281; for `CCC1=C(c2ccc(Cl)cc2)CCC(C(=O)NCCCN(C)C)C1C` (stereo not drawn) [CBK012578] it is 3.648. The figure for `COCc1nnc(SCC(=O)N2CCc3ccccc32)n1-c1ccccc1` [CBK269739] is 97.5017; for `COCC(C)NC(=O)Cn1cccc2cc(C(F)F)nc1-2` (stereo not drawn) [CBK285011] it is 98.6087. The figure for `CC(=O)NC[C@H]1CN(c2ccc(C3=CC[S+]([O-])CC3)c(F)c2)C(=O)O1` (stereo partly drawn) [CBK017555] is 0.1165; for `COc1ccc(-c2cc(=O)oc3cc(OC(C)C(=O)O)ccc23)cc1` (stereo not drawn) [CBK286696] it is 74.8776. On to `CC(NC(C)(C)C)C(O)COc1ccc(Cl)c2c1C1CCC2CC1` (stereo not drawn) [CBK017752C], for which the “% of control remaining” value was 49.0845. The figure for `CC1CN(C)C(c2ccccc2)C(C)C12NC(=O)NC2=O` (stereo not drawn) [CBK288428] is 142.279; for `Cc1cccc(OCC(=O)Nc2ccc(S(=O)(=O)N3CCOCC3)cc2)c1` [CBK264110] it is 95.7477. With `O=C(CCSS(=O)(=O)O)N1CCc2ccccc21` [CBK260892N] the figure was 102.919. Regarding `CN1CCC2(CC1)NCCc1c2ccn1S(=O)(=O)c1ccc(I)cc1` [CBK061945C], the “% of control remaining” value stood at 8.188.

As to `CN(C(=O)CN1CCCC1Cn1cccn1)C1(C#N)CCCCC1` (stereo not drawn) [CBK304571], the “% of control remaining” value is recorded as 43.8865. For the compound `Cc1nonc1CC(=O)N[C@H]1C2CCCCC2[C@@H]1c1ccccc1` (stereo partly drawn) [CBK285126], the “% of control remaining” value was found to be 101.002. With `CCn1cc(S(=O)(=O)NC2CCc3[nH]c4ccc(C)cc4c3C2)cn1` (stereo not drawn) [CBK304790] the figure was 88.9014; with `CCC1CCCCN1C(=O)c1sc2ncccc2c1N` (stereo not drawn) [CBK081410], 84.6329. Take `CC(C)NS(=O)(=O)c1ccc(NS(=O)(=O)c2cc(C(=O)O)ccc2Cl)cc1` [CBK296951]: the “% of control remaining” value is on record as 77.6287.

`COc1ccc(S(=O)(=O)Nc2ccc3oc4c(c3c2)CC(C)CC4)cc1[N+](=O)[O-]` (stereo not drawn) [CBK266131]: the “% of control remaining” value was 79.5464. Consider `c1ccc2c(c1)/C(=N/OCCCN1CCCCC1)CC21CCCCC1` [CBK013321], for which the “% of control remaining” value turned out to be 25.1119. The figure for `O=S(=O)(Nc1ccc2cn[nH]c2c1)c1ccc(-c2ccon2)s1` [CBK067157] is 95.5565; for `FC(F)(F)c1cnc(N2CCNCC2)c(Cl)c1` [CBK013400] it is 92.9512; for `CCN1C(=O)c2ccccc2C(=O)[C@@]2(C)CN(C(=O)C3CC3)C[C@@H]12` [CBK284567] it is 123.464. As for `CN(C)CCN1CCN(CC2(c3ccc(Cl)cc3)CC2)CC1` [CBK282783], the “% of control remaining” value is 101.8.

`O=c1nc(C(F)(F)F)n2ccccc2n1` [CBK027683]: the “% of control remaining” value is recorded as 86.528. With `CCOc1ccc2nc(SCc3nc(N)nc(Nc4cccc(Cl)c4C)n3)sc2c1` [CBK265202] the figure was 90.049; with `CN(C)CCCN1C(=O)C(O)=C(C(=O)c2ccc(Br)cc2)C1c1cccnc1` (stereo not drawn) [CBK264589], 115.962; with `COc1ccccc1-c1ncc(OCc2ccccn2)nc1N` [CBK145070], 101.245. The figure for `CCN1CCN(C(=S)c2ccc(OCC(N)=O)c(OC)c2)CC1` [CBK269293] is 86.602; for `CCN1C(=O)CC2(C1=O)C(=O)N(CCc1cccs1)c1ccccc12` (stereo not drawn) [CBK075521] it is 89.1512. The figure for `O=C(NCC(F)F)c1cn2cc(-c3cccs3)n(CC3CC3)c(=O)c2n1` [CBK307347] is 79.4177; for `CN(C(=O)C1CCN(Cc2cccc(C(F)(F)F)c2)CC1)C(c1ccc(F)cc1)c1ccccn1` (stereo not drawn) [CBK148409] it is 106.989. Take `CCNS(=O)(=O)c1ccc(NC(=S)Nc2ccc(S(N)(=O)=O)cc2)cc1` [CBK266978]: the “% of control remaining” value worked out at 92.2571. The figure for `Cc1c(C)n(Cc2ccco2)c2ncnc(SCCC(=O)O)c12` [CBK307569] is 41.3982; for `COCC(=O)NC1CCN(CC2(c3ccc(C)cc3)CC2)CC1` [CBK285350] it is 91.2577; for `O=S(=O)(NC1CCCCC1)c1ccc(Cl)cc1I` [CBK057574] it is 99.1309. With `CC1(C)Cc2c(sc(NC(=O)C3CC(Cl)=CCC3C(=O)O)c2C#N)CO1` (stereo not drawn) [CBK265002] the figure was 127.371; with `C/C(=N\Nc1ccc(Cl)c(Cl)c1)c1cccnc1` [CBK015914C], 11.1094. With `O=C(CCSc1ccccc1)Nc1ccccc1C(=O)O` [CBK264119] the figure was 71.5536; with `CSc1ccc(-c2cnc(N)c(-c3ccc(C(=O)N4CCOCC4)cc3)n2)cc1` [CBK084539], 104.288. In the case of `Cc1nc(C)c(CC(=O)N2CCC(Oc3cccc(F)c3)CC2)s1` [CBK282223], the “% of control remaining” value amounted to 98.0803. On to `Cc1cc(C[C@@H]2CCC[C@H]2NCc2cc(Cl)ccc2O)on1` [CBK282997], for which the “% of control remaining” value is on record as 128.732.

Regarding `O=C(CCN1CCCCC1)Nc1cnc(-c2ccc(F)cc2)c(-c2ccsc2)n1` [CBK036846], the “% of control remaining” value stood at 75.0317. With `COc1cccc(CS(=O)(=O)c2c(Br)sc3ccnc(N4CCNCC4)c23)c1` [CBK038956C] the figure was 93.8115; with `O=C(c1ccc(NS(=O)(=O)c2ccccc2)cc1)N1CCN(Cc2ccc3c(c2)OCO3)CC1` [CBK267957], 87.1722; with `CC1=NN(c2nc(-c3ccc(Br)cc3)cs2)C(=O)C1/N=N/c1ccc(C(=O)O)cc1` (stereo not drawn) [CBK262435], 97.844.
